# Values of other authors as cited in US20200016134A1, “COMPOSITIONS AND METHODS FOR TREATING SUBSTANCE ABUSE DISORDERS” (EMBERA NEUROTHERAPEUTICS, INC., priority 2016, published 2020).
# Test system: rats
# Conditions: subsequent testing, Goeders et al., 1993; cited from earlier work
compound,measurement,value
Cc1nnc2n1-c1ccc(Cl)cc1C(c1ccccc1)=NC2 [alprazolam],tolerance to the reduction of cocaine self-administration,no tolerance was observed
